Out of some 310,000 compounds screened, about 2,200 (0.71%) showed an effect of 50% or more. Effects have a minus sign here. This is one part of the list.
target: human ether-à-go-go-related gene (hERG) potassium channel (human, UniProt Q12809); test: primary screen, population patch clamp on CHO cells stably expressing hERG
Sequence (Q12809 whole entry, looked up): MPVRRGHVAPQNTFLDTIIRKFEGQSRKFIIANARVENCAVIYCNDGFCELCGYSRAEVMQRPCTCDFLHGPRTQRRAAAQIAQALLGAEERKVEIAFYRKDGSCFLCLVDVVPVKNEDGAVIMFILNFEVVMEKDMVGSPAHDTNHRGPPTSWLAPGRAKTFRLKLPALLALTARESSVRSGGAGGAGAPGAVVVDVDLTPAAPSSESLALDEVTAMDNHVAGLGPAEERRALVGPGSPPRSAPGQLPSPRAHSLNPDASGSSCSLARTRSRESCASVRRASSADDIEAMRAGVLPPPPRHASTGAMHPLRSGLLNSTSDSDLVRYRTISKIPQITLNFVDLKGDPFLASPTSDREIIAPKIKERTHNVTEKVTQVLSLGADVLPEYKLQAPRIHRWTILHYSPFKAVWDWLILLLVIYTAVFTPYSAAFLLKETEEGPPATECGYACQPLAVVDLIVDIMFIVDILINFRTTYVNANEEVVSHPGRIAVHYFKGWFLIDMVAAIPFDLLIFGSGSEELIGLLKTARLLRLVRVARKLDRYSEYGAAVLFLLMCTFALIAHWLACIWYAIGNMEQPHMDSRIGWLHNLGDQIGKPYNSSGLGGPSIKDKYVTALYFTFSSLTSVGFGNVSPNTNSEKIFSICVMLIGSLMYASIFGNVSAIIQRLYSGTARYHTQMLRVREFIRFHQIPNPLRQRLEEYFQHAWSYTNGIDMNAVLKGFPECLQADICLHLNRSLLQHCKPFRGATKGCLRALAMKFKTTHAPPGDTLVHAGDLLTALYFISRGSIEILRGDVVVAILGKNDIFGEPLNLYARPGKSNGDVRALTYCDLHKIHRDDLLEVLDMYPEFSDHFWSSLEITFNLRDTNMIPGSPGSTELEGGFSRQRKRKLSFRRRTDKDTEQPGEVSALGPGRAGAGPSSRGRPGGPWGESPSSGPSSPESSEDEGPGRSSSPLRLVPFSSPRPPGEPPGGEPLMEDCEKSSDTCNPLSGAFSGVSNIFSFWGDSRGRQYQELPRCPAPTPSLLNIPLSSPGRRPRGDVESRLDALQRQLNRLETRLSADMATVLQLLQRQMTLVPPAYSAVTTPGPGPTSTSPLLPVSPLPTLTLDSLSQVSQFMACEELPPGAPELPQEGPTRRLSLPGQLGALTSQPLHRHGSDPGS

SMILES | hERG current change (%, negative = inhibition) at 1uM
CCOC(=O)/C(C#N)=C1\C=CN(C)C(C)=N1 | 4.92%
Cc1cc2c(C)nc(Cc3ccccc3)nc2o1 | 10.2%
COc1cccc(OC)c1C(=O)O/N=C(\N)c1ccncc1 | 14%
CCOc1ccc(C2CC(c3cccc(OC)c3)Nc3nc(N)nn32)cc1 (stereo not shown) | -5.32%
Cc1ccc(S(=O)(=O)N(C)CC(=O)NCc2ccncc2)cc1 | -5.58%
Cc1ccc(CN2C(=O)CCC2C(=O)NCCN2CCOCC2)cc1 (stereo not shown) | 8.86%
O=C(Nc1ccc2c(c1)OCO2)C1CCN(S(=O)(=O)Cc2ccccc2)CC1 | 10.9%
CC(=O)N1c2ccc(S(=O)(=O)N(C)C3CCCCC3)cc2CC1C (stereo not shown) | -4.1%
CCN(CC)CCNC(=O)Cn1nc(-c2ccc(C)cc2)ccc1=O | 10.6%
N#Cc1cccn1-c1nccc(-c2cccs2)n1 | 11.4%
Cc1sc2nc(SCC(=O)O)[nH]c(=O)c2c1C | 1.56%
CCCCN(CC)CCNC(=O)c1[nH]c(C)c(C(C)=O)c1C | 6.32%
Cc1oc(-c2ccccc2F)nc1CS(=O)(=O)CC(=O)NCCN1CCCC1 | 16.9%
CCOc1ccc(N(CC)C(=O)Cc2c(C(=O)O)n(C)c3ccccc23)cc1 | 12.7%
O=C(O)COc1ccc2c(c1)OCCO2 | 4.83%
O=C(Cn1c(=O)oc2cc(S(=O)(=O)N3CCCC3)ccc21)N1CCN(c2ccccc2F)CC1 | 7.28%
Cc1ccccc1OC(C)C(=O)NCCCN1CCOCC1 (stereo not shown) | 15.7%
O=C1CSC(c2cccnc2)N1Cc1cccnc1 (stereo not shown) | 13%
Cc1nn(CC(=O)OCC(=O)NC(C)c2ccccc2)c(C)c1[N+](=O)[O-] (stereo not shown) | 4.56%
COc1ccc(C(=O)Oc2cc(C(=S)N3CCOCC3)ccc2OC)cc1 | 15.1%
NC(=O)c1nc(N2CCOCC2)nc(N2CCOCC2)n1 | 15.7%
CCN(CC)c1ccc(C(=O)NNC(=O)c2cccn2C)cc1 | 6.51%

SMILES | hERG current change (%, negative = inhibition) at 1uM
COc1cc(NS(=O)(=O)c2ccc3ccccc3c2)c2ncccc2c1 | 9.9%
CCCC1(C(=O)OC)NC(c2ccc(OC)c(OC)c2)C2C(=O)N(c3cccc(C(C)=O)c3)C(=O)C21 (stereo not shown) | 11.9%
CCN1C(=O)CSC1=Nc1ccc(C(=O)O)cc1 | 16.6%
CCCc1c(C(=O)Nc2ccc(F)cc2F)cnn1-c1ccccc1 | 17.6%
COc1ccc(N(CC(=O)NCc2ccccn2)S(=O)(=O)c2ccccc2[N+](=O)[O-])c(OC)c1 | 9.62%
COc1ccccc1N1CCN(S(=O)(=O)c2ccc(Br)s2)CC1 | -5.53%
CCc1c(C)nc2ncnn2c1NCCc1ccccc1 | -6.11%
COc1cc(C(=O)NCCSc2ccc(Br)cc2)cc(OC)c1OC | 7.49%
CCc1nnc(NC(=O)C2CCCN(S(=O)(=O)c3ccccc3)C2)s1 (stereo not shown) | 9.52%
CCc1cc2cc3c(cc2nc1SCC(=O)Nc1nnc(C)s1)OCCO3 | 12%
CCS(=O)(=O)N1CCN(c2ccc([N+](=O)[O-])c(NCc3cccnc3)c2)CC1 | 0.286%
Cc1nc2[nH]c(=S)n(C)c(=O)c2nc1C | 16.1%
COC(=O)c1cccnc1-n1c(=O)c2cccnc2n(Cc2cccc([N+](=O)[O-])c2)c1=O | 2.09%
O=C(CC(Sc1ccccc1)c1cccs1)c1ccco1 (stereo not shown) | 13.3%
CCc1ccccc1NC(=O)NNC(=O)c1ccc2ccccc2c1O | 12.6%
CCn1c(COc2ccc3c(c2)OCO3)nnc1SCC(=O)c1ccccc1 | 17.7%
COc1ccc(S(=O)(=O)N2CCc3ccccc32)cc1C(=O)N(CC(C)C)C1CCS(=O)(=O)C1 (stereo not shown) | -0.203%
C=CCN(c1ccccc1)S(=O)(=O)c1ccc2c(c1)oc(=O)n2C | 10.7%
COCCCNc1nc(N)c([N+](=O)[O-])c(NC2CCCCC2)n1 | 10.8%
COc1ccc(S(=O)(=O)N(CCc2ccccc2)CC(=O)NCCCO)cc1 | -12.8%
CN(Cc1cccnc1)C(=O)c1cc(COc2ccc3ncccc3c2)on1 | 9.64%

Source: PMC4336329 (PLoS ONE, 2015)
